Sequences and labels used below:
T1: UNK ZnF1-3 (human, UniProt Q9C0B0 31-174)
T1 sequence: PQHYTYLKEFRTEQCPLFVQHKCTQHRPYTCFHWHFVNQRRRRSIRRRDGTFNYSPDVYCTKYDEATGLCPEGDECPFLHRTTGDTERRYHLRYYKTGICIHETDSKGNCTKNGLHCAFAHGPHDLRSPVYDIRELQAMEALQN

B1: chr1:225611761:225611762:-_ENSG00000143815_ENST00000272163|hu_mus|hu_hu_hu_mus_True|58_78 (ssRNA)
RNA: GGGAGUUCUACAGUCCGACGAUCCCAGGCCAUCGGCCUCUGACCACUUCACCCUCAGCAAAUUUCCUACUUGGCAUUUUCUAUAAUUAGUCUGGCCGCGCUCCGGCGGGAACUCCAGCCACUCCAGGACAGUCACCAGCAGCCCAACAGAGGAUUGAGCAUCA
B2: chr4:62048941:62048942:+_ENSMUSG00000066150_ENSMUST00000084526|mus_mus|motif|central (ssRNA)
RNA: GGGAGUUCUACAGUCCGACGAUCUUGAGACUUUCGAAGCAGACCCUCUCGGGCUAUCUUGAGUCCUUCAUAAAACAUUGCGGGUAAAAACACUGCCACGAAGGCUCCAGCCAUUUCUCCAGGUGUAUUGAUUACCAAACCGGACAACAGAGGAUUGAGCAUCA
B3: chr10:17279496:17279497:+_ENSG00000026025_ENST00000224237|hu_mus|motif|central (ssRNA)
RNA: GGGAGUUCUACAGUCCGACGAUCUUUAAUGGUAUUCAAAAAUACUUUAAAAAGUAUUCUAGCACAAGAUUUCUUCGUAAACGGGAUUAUUUUGUAAACCUUUUCUACGUCUUUUGGGGUGUCAGUUGUUAAGUGCUGAGCUUCCAACAGAGGAUUGAGCAUCA
B4: chr22:19452774:19452775:-_ENSG00000070010_ENST00000399523|hu_hu|hu_hu_hu_mus_False|38_58 (ssRNA)
RNA: GGGAGUUCUACAGUCCGACGAUCCUUCUCAUUGUAGUUGAUAGCAAUCACAUCUCCAGUCGUCAGACAGGCGAAGUUCCUAAGUGCAUUUUCUAAUACGGCUUUGGGGUUGGUAAUAUCCAGGAAGUCUGGGCUCUGAGGCUGCAACAGAGGAUUGAGCAUCA
B5: chrX:130830059:130830060:+_ENSMUSG00000033578_ENSMUST00000037687|mus_hu|FALSE|FALSE (ssRNA)
RNA: GGGAGUUCUACAGUCCGACGAUCGGGCCACAAUAGUUACGGUUCUGGGGGAUGCCAUGGGGUCGCCAAGGCAGGUCCCAACUAAUCCUUCUGAUUUGCGCACCCGCUCUGUCCAAGGUGCAGGCAGUUAGCACAGGGAGAGCUCAACAGAGGAUUGAGCAUCA
B6: chrX:102931257:102931258:-_ENSG00000123562_ENST00000441076|hu_hu|FALSE|FALSE (ssRNA)
RNA: GGGAGUUCUACAGUCCGACGAUCUAAUGCAAGGCUUUUCUCAUCAAGGGGCGUAUAGGCCAACAUUGCUCCAAUUCUUACAAAUAAUCUCAGUAGGUGUGGUGCUCCAUAAACCUGGGACAUUGGAGCAUCAGGGUGAGCCAACAACAGAGGAUUGAGCAUCA
B7: chr7:151640622:151640623:-_ENSMUSG00000031078_ENSMUST00000033407|mus_mus|FALSE|FALSE (ssRNA)
RNA: GGGAGUUCUACAGUCCGACGAUCACCUUUGGAGUAAUCUUUCUGAGACUCAUGCUUCUCCGUCUUGCCCUGGUAGUCAAAGCCCACGGCACUCUUGUCUACACGGUCAGCUUGCACACCGUAUUUGCCACCGAAGCCACUAGACAACAGAGGAUUGAGCAUCA
B8: chr11:13408652:13408653:+_ENSG00000133794_ENST00000403290|hu_hu|FALSE|FALSE (ssRNA)
RNA: GGGAGUUCUACAGUCCGACGAUCGACUUCUUUGUAGUGUAAAAACACCAUACAUCUGAAAUGACCAUUUGCAUAUAAAAGCUACCAAUGAUGCUUCUGUGCACAAUGAUUAAAAAAUUCAACACAAACAGAAUCCAAAAUAUACAACAGAGGAUUGAGCAUCA
B9: chr17:35975164:35975165:-_ENSMUSG00000001525_ENSMUST00000001566|mus_mus|FALSE|FALSE (ssRNA)
RNA: GGGAGUUCUACAGUCCGACGAUCGACCGGAGCCCGGGAGGCUGCAGCAGCGAGAUGCAAGCACGACCGCAGGAAGGUUCUAAGAGGCAGAAGAGGCCGGCGAGCGCAGGAGGGAAGGCGCGCAGGGCGGGGCUCGCGUUCGCGCAACAGAGGAUUGAGCAUCA
B10: chr19:16212804:16212805:+_ENSG00000167460_ENST00000300933|hu_mus|hu_hu_hu_mus_False|18_28 (ssRNA)
RNA: GGGAGUUCUACAGUCCGACGAUCAACAAUUCUGGAGUGAAGGAAAGAUGUAACAUGGAACAGCAUUAAAGCUCAGUCAGAAGGCACAUGGGCAACAAUGAUCACCCCCCAAGCAUUCUACGUUGACCUUAAAGACAAUCUGUUCAACAGAGGAUUGAGCAUCA
B11: chr14:78183846:78183847:+_ENSG00000119705_ENST00000557342|hu_hu|hu_hu_hu_mus_False|88_108 (ssRNA)
RNA: GGGAGUUCUACAGUCCGACGAUCUCUGUCUCAAAAAUCUUCAUCAGCAUCAUCAGAUCCGUGCAAAGCCUUUGCUCUUUGAGCUUGAACGUGGAUCUAUGGGAGGGAAAGCACUGUCAGAAAAGGUAAUUUUUUUUUUAAAGACAACAGAGGAUUGAGCAUCA
B12: chr1:63494365:63494366:+_ENSMUSG00000025964_ENSMUST00000114107|mus_mus|FALSE|FALSE (ssRNA)
RNA: GGGAGUUCUACAGUCCGACGAUCAGGCAGUGUGAUUUCUUUUUGCACUGCACUGCUGUAGCUGGUAUUUCUGCUGCUGCUAUUUUGUUGCAAUGUGUUGUCUUCAUCUGCCAGGACUCCCAGGGUUUUUUCUGCAGUUUCAUUCAACAGAGGAUUGAGCAUCA
B13: 111630612_111631619_1632_CDS_ENSG00000108039_ENST00000369680|human|control|control (ssRNA)
RNA: GGGAGUUCUACAGUCCGACGAUCUAGGCCUGAAUCCCAUAAAGCUGAACGGGCAAAGGAGUCAAGAAGGUGACCUUUGGUUCCAGUCGGGAAAACGGCUGCACUCACAGCUAUGUGGCCCUUGAGGACAUAUGUGAAGCAUUCCAACAGAGGAUUGAGCAUCA
B14: 112490949_112493535_1126_CDS_ENSMUSG00000021277_ENSMUST00000021706|mouse|control|control (ssRNA)
RNA: GGGAGUUCUACAGUCCGACGAUCCUCCUUCUGCCUCUCAAUCUCGAUCUCAAAGCUGCAGAUCUGGUUGUGCAGGCUUUGGAUGCUCUUGUUUUUCUCAACACUUUCAUUCUGCAGCAGGGAAACCUUCUUCUCCAGGGAGUUCAACAGAGGAUUGAGCAUCA
B15: chr1:60041781:60041782:+_ENSMUSG00000041040_ENSMUST00000036540|mus_hu|mus_mus_mus_hu_False|1_88 (ssRNA)
RNA: GGGAGUUCUACAGUCCGACGAUCAAGUUUACAAUAGUAAAGUAAAUCAAAUUUAGUCAAAUUUUCUUUUAUUUUCCUUCACAAAAGAAAAUCUUUAUAACCCAGUCCUAGUCUUGGACAUAGUGAAAGCUAUAAAUGCCACUGCAACAGAGGAUUGAGCAUCA
B16: 22939207_22940788_1184_CDS_ENSG00000068793_ENST00000560848|human|control|control (ssRNA)
RNA: GGGAGUUCUACAGUCCGACGAUCCUGGAUCAUCUGCUCGCAGAUGUUGUACUGAGGGCUGCUGCCGGAGGAUGUGCACGUCCAUCGAGAUUUAUUUUCCUCGUAGUGGGCGCUGGUCUUGAUAUAUCUUGCCAGUUCUAUUUGCAACAGAGGAUUGAGCAUCA
B17: chr18:43482012:43482013:-_ENSMUSG00000024501_ENSMUST00000121805|mus_hu|motif|central (ssRNA)
RNA: GGGAGUUCUACAGUCCGACGAUCUCUGAAAGACCCCCACAUCUUUGAAGUGUAAACUAAGAGCUACAUUUUCCCUUUUACGGCAUCUCCCUUAAAAGAAAAGCACUACAAGAGCUUUAAAAUAGCAAGCUUCCCUAUUCUAAGCAACAGAGGAUUGAGCAUCA
B18: chr2:5814250:5814251:-_ENSMUSG00000025816_ENSMUST00000102981|mus_hu|mus_mus_mus_hu_True|18_68 (ssRNA)
RNA: GGGAGUUCUACAGUCCGACGAUCUUCCUUUCCGGUUUCUGAAUUUCUGGUAGAACUGCACAGAAUGGUUUAAUAACUUCUAAAAAUUUGAUGCCCAUGGCUGCUGCUGGGGAGGCCCGGCGGGCACCCGCGGCCUCGGCGCUGCAACAGAGGAUUGAGCAUCA
B19: chr12:3264740:3264741:-_ENSMUSG00000020671_ENSMUST00000021001|mus_hu|motif|central (ssRNA)
RNA: GGGAGUUCUACAGUCCGACGAUCCCAUAUCUGUAGCUUGAUCUUCUUUCCUUGUAAUUCAACUGUUUUGAUCUUGAAGUCGGUUCCGGUGGUGGAAAUAAAGGUAGUAUUGAAGGCAUCAUCCGAAAAACGAAAAAGGACGCACAACAGAGGAUUGAGCAUCA
B20: chr9:82820052:82820053:-_ENSMUSG00000032253_ENSMUST00000034787|mus_hu|FALSE|FALSE (ssRNA)
RNA: GGGAGUUCUACAGUCCGACGAUCGCCAUGUCCUUGGCCUUCAAUCAUAUUGAAAUAAGAUCGUAUUUUGACUCCUCUUGCCAGAUCCCACACUAUCACGUUUCCAUCAUGACCAGCAGAAAAGAGAACUCUAGGAUCGAACGGCAACAGAGGAUUGAGCAUCA
B21: chr14:78183846:78183847:+_ENSG00000119705_ENST00000557342|hu_hu|hu_hu_hu_mus_False|28_48 (ssRNA)
RNA: GGGAGUUCUACAGUCCGACGAUCUCUCAGAAAUCUUUCUUCAUCAGAUGUUUGAGCUCCGUGCAAAGCCUUUGCUCUUUGAGCUUGAACCUGGACCUAUGGGAGGGCUAUAAUAUGCAGAAAAGGUAAUUUUUUUUUUAAAGACAACAGAGGAUUGAGCAUCA
B22: chr15:76911759:76911760:-_ENSMUSG00000033565_ENSMUST00000166610|mus_mus|FALSE|FALSE (ssRNA)
RNA: GGGAGUUCUACAGUCCGACGAUCGAGGAACAUCCAGACAAACAUUUUCACUACAAGUCUCCUUAAAGGAAUCCAGCUUCUAGUAAUAUUCGCAGCAUAGAAAGCCCAGGCCACAGAGGCCUGCAAAACUGCAAACACCCUUCUCAACAGAGGAUUGAGCAUCA

The values that follow come from article PMC12136788.

The other results are listed elsewhere or left out.

The target in the test is T1, UNK ZnF1-3. The test can be described thus: nsRBNS (natural sequence RNA bind-n-seq); RBNS binding buffer (assumed for nsRBNS): 25 mM Tris pH 7.5, 150 mM KCl, 3 mM MgCl2, 0.01% Triton X-100, 500 ug/ml BSA, 20 U/ml SUPERase-In, 4 C; UNK is unkempt and MSI1 is Musashi-1; names of the RNAs are library labels; protein concentration not given here; high values mean tight binding.
As to B1, the binding signal was determined as 1.21 enrichment R.

For the molecule B2, the binding signal was 0.869 enrichment R.

The molecule B3 came in with a binding signal of 0.427 enrichment R.

B4 displayed a binding signal of 1.03 enrichment R.

Molecule B5 displayed a binding signal of 0.813 enrichment R.

For B6, the binding signal amounted to 1.04 enrichment R.

On to B7, for which the binding signal is 0.783 enrichment R.

With B8, the binding signal is 0.628 enrichment R.

B9 returned a binding signal of 1.69 enrichment R.

Molecule B10 yielded a binding signal of 1.3 enrichment R.

As for B11, the binding signal was 1.78 enrichment R.

B12: the binding signal came out at 0.221 enrichment R.

In turn, B13 came in with a binding signal of 1.33 enrichment R.

B14 came in with a binding signal of 0.58 enrichment R.

Consider B15, for which the binding signal turned out to be 0.569 enrichment R.

B16 displayed a binding signal of 0.693 enrichment R.

In the case of B17, the binding signal was determined as 1.36 enrichment R.

For the molecule B18, the binding signal was found to be 0.929 enrichment R.

Regarding B19, the binding signal was 1.71 enrichment R.

Turning to B20, the binding signal amounted to 0.919 enrichment R.

Consider B21, for which the binding signal is 1.79 enrichment R.

B22 yielded a binding signal of 1.1 enrichment R.
